Laboratory results published in the supplement of paper PMC11417369.
± gives the standard deviation of the averaged measurements. Some of the results follow.

These sequences were tested on PfAP2-I AP2 domain 3 (GST-tagged) (assay: gcPBM binding intensity (ln(normalized median fluorescence intensity)); higher = stronger DNA binding).
In short: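 Alexa488 anti-GST antibody, scanned at 488 nm, detected GST-tagged P. falciparum DNA-binding domains that had been expressed in E. coli and incubated for 1 h on an Agilent 4 × 180k array. The array carried primer-extended double-stranded 36-bp intergenic genomic probes and negative controls. Binding intensity is the highest Masliner-normalised natural-log median intensity across replicate spots of either orientation of each probe.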
“AAAAATAAATAAATATGTACATATATACATATATAT [XGTACX_site5892]” was tested, and the “gcPBM binding intensity (ln)” value was 7.74 ± 0.47.
With “TTTTATATGTTATATACACACATATAAATAAATATA [CACACA_site7418]” the “gcPBM binding intensity (ln)” value was 7.78 ± 0.33.
With “TAACATATGGGACACACATGCAACTGTTATATGTCC [TGCATGCA_site959]” the “gcPBM binding intensity (ln)” value was 7.6 ± 0.57.
For “AGAAAACATATGTTTTGTACTTAAGAAAAAAAAAAA [XGTACX_site4231]”, the “gcPBM binding intensity (ln)” value was 7.98 ± 0.86.
With “AACAGGTCATAATTTACACACTATATATTTTATTAT [CACACA_site670]” the “gcPBM binding intensity (ln)” value was 7.8 ± 0.75.
For “TATATCATATAAAACCGTACATACATACTTAATTGT [XGTACX_site6822]”, the “gcPBM binding intensity (ln)” value was 7.8 ± 0.29.
In the case of “ATCTATATTCATAATACACACATTCTGTAGCATTAT [CACACA_site7058]”, the “gcPBM binding intensity (ln)” value is reported as 8.03 ± 0.52.
In the case of “TGATTAATTTTTAAATGTACTTAAAAATATACTTAT [XGTACX_site2872]”, the “gcPBM binding intensity (ln)” value is reported as 7.66 ± 0.29.
With “ATATATAATATATATTGTACAGGTATGTCTATAAAT [XGTACX_site2243]” the “gcPBM binding intensity (ln)” value was 8.04 ± 0.55.
With “GAGAGGTATCAAAAATGTACACATATATATATGTAT [XGTACX_site5611]” the “gcPBM binding intensity (ln)” value was 7.79 ± 0.47.
With “TTTTTTCTTTATTATGGTACGTATAAAAAAATTATA [XGTACX_site3433]” the “gcPBM binding intensity (ln)” value was 7.82 ± 0.38.
In the case of “TATAAAATTTTTAAAAGTACATATTTTACATAATAC [XGTACX_site2193]”, the “gcPBM binding intensity (ln)” value is reported as 7.99 ± 0.32.
“ATTATTCCATATTATTGTACTTTAATTTTTTAAACC [XGTACX_site2960]” was tested, and the “gcPBM binding intensity (ln)” value was 7.92 ± 0.43.
With “TTTTTATCAACAAATAATACCATAACTCATATTTAT [CACACA_negctrl_site740]” the “gcPBM binding intensity (ln)” value was 7.57 ± 0.56.
For “AAAAAAAAAACACGCGCACACACACCCACCCACCCA [CACACA_site8689]”, the “gcPBM binding intensity (ln)” value was 8.7 ± 0.98.
For “ACTAATAAAGGTGTAATACACACTATAAAAAGGAAT [CACACA_site1124]”, the “gcPBM binding intensity (ln)” value was 8.61 ± 0.67.
TTTATCTAAATATGTGTGCACTCGTTAATTTTTTTT was tested, and the “gcPBM binding intensity (ln)” value was 9.89 ± 0.2.
With “TATATAAACCCACCTACACACACAACGTAAATGCAT [CACACA_site8702]” the “gcPBM binding intensity (ln)” value was 8.41 ± 0.4.
In the case of “ATTATTATATTCAAATGTACTTAATAAACATTTTAA [XGTACX_site3023]”, the “gcPBM binding intensity (ln)” value is reported as 7.79 ± 0.2.
“TGTTGATTTATCCTGTGTACGGATATATATCTTTCA [XGTACX_site7826]” was tested, and the “gcPBM binding intensity (ln)” value was 7.62 ± 0.54.
For “TAAAGAATATTATAAACACACACTTTATAAAGAATT [CACACA_site114]”, the “gcPBM binding intensity (ln)” value was 7.79 ± 0.47.
In the case of “GTAATTATACATATTACACACTCTCTTGATCTTTTT [CACACA_site7756]”, the “gcPBM binding intensity (ln)” value is reported as 7.87 ± 0.69.
“TATATAAAGAAACACACACACACCTTATAATTATTA [CACACA_site4062]” was tested, and the “gcPBM binding intensity (ln)” value was 7.89 ± 0.26.
For “GAAAATAACTAAAATTGTACAAAGAAACATATATTT [XGTACX_site6484]”, the “gcPBM binding intensity (ln)” value was 7.97 ± 0.47.
With “AGAAAAAAATAATCATCACACACGGAGAATGTCCAA [CACACA_site2314]” the “gcPBM binding intensity (ln)” value was 7.47 ± 0.72.
“TATTAAAGCACCCATGCACACACACTAAGGAAAAGA [CACACA_site7961]” was tested, and the “gcPBM binding intensity (ln)” value was 11.6 ± 0.71.
“TATATATATCTGTATACACACATACAAATATGTAAA [CACACA_site5950]” was tested, and the “gcPBM binding intensity (ln)” value was 7.85 ± 0.47.
“GATATTCATTATATATGTACATATATGTAATATATA [XGTACX_site2210]” was tested, and the “gcPBM binding intensity (ln)” value was 7.71 ± 0.44.
“TAATAATATATAAAAAGTACATAACAAGATATGAAA [XGTACX_site4921]” was tested, and the “gcPBM binding intensity (ln)” value was 7.72 ± 0.6.
In the case of “ATATATTTTTTTTTTTCACACATTAGGATTCATATA [CACACA_site5758]”, the “gcPBM binding intensity (ln)” value is reported as 7.75 ± 0.7.
For “AAATGGAAAAGGTGTACACAAAAAAAAGGGAAAAGC [CACACA_site5331]”, the “gcPBM binding intensity (ln)” value was 8.96 ± 0.75.
In the case of “TACATATAAATATATAAATATAAATAAATAAATAAA [XGTACX_negctrl_site180]”, the “gcPBM binding intensity (ln)” value is reported as 7.86 ± 0.79.
In the case of “TTTTTTTTTTTTTTTGCACACACATTGAATTATTAT [CACACA_site198]”, the “gcPBM binding intensity (ln)” value is reported as 9.38 ± 0.45.
With “CTTTATATATAGTGTACACATTAAACAAATCTCAAT [CACACA_site5845]” the “gcPBM binding intensity (ln)” value was 8.37 ± 0.39.
In the case of “TTACCAAAAACCTCAAGTACAAAAAATCCCTAATAT [XGTACX_site2313]”, the “gcPBM binding intensity (ln)” value is reported as 7.8 ± 0.59.
For “ATAGTATACAGACACACACACACACGGATATAAATA [CACACA_site6914]”, the “gcPBM binding intensity (ln)” value was 7.97 ± 0.49.
In the case of “ATATATATATATATATGTACTAAATATTCATCCTTA [XGTACX_site6039]”, the “gcPBM binding intensity (ln)” value is reported as 9.62 ± 0.71.
For “TATAAGAGAAGAAGAAAAAAAAGGTTTCTATAGAAA [XGTACX_negctrl_site421]”, the “gcPBM binding intensity (ln)” value was 7.42 ± 0.69.
For “AAGAAGCATAAATGTACACACATATTTATATATTAA [CACACA_site1332]”, the “gcPBM binding intensity (ln)” value was 7.78 ± 0.32.
“CATATAGTAATATATACACACACTTGTCTTGTAAAA [CACACA_site8238]” was tested, and the “gcPBM binding intensity (ln)” value was 7.66 ± 0.52.
With “ATATTTATAATTTTTTGTACACATTTTTTAAAGATA [XGTACX_site1784]” the “gcPBM binding intensity (ln)” value was 8 ± 0.35.
For “TTGGTACCTATAGATACACACATATATACATATATA [CACACA_site3402]”, the “gcPBM binding intensity (ln)” value was 7.77 ± 0.34.
For “TAAGAGTAGTTATATACACACATGTATATTATAGTT [CACACA_site6815]”, the “gcPBM binding intensity (ln)” value was 7.53 ± 0.75.
In the case of “TATATATATATATTATGTACGTATCAGTTTGTATGT [XGTACX_site695]”, the “gcPBM binding intensity (ln)” value is reported as 9.2 ± 0.16.
For “TTATAAATTAGAGGTACACACAAAAAAAAAAAGAAA [CACACA_site6740]”, the “gcPBM binding intensity (ln)” value was 7.95 ± 0.39.
For “CACGACATTAACAATACATGCAGAAAAACAAAAAAT [TGCATGCA_site689]”, the “gcPBM binding intensity (ln)” value was 8.24 ± 0.86.
“ATTTTTAATATTATTACACACACTAAAAAAAAAAAA [CACACA_site1067]” was tested, and the “gcPBM binding intensity (ln)” value was 8.08 ± 0.51.
For “AATGGGTTAGCACATACACACCAATATATTATATAT [CACACA_site9011]”, the “gcPBM binding intensity (ln)” value was 7.96 ± 0.42.
For “ATTTATGATATGTAAACATGCATAAAAATTTCAAAA [TGCATGCA_site858]”, the “gcPBM binding intensity (ln)” value was 7.62 ± 0.64.
“TATAAACTTAATTTGAGTACTTAATAATAATTTTGT [XGTACX_site3730]” was tested, and the “gcPBM binding intensity (ln)” value was 7.38 ± 0.47.
With “TATATATGTATATATGGTACAGAATATTCTACATTA [XGTACX_site5077]” the “gcPBM binding intensity (ln)” value was 7.56 ± 0.54.
For “TACCACATCGGTAAATGTACTTATAAAAAAAAAAAA [XGTACX_site3364]”, the “gcPBM binding intensity (ln)” value was 8.04 ± 0.61.
In the case of “CATCCACATATATGTACACACATATATATATATATA [CACACA_site2964]”, the “gcPBM binding intensity (ln)” value is reported as 9.29 ± 0.45.
For “CAATCATTTTATTGTTGTACAGTAATTATGAATTCA [XGTACX_site7508]”, the “gcPBM binding intensity (ln)” value was 7.62 ± 0.38.
For “TGTCATGATACATACACACACATACACATACACATA [CACACA_site2135]”, the “gcPBM binding intensity (ln)” value was 8.05 ± 0.42.
For “AAACAACAAAAATGATATATATAAAATTTATAATAT [XGTACX_negctrl_site185]”, the “gcPBM binding intensity (ln)” value was 7.49 ± 0.51.
“TATTTAATTATATAAAATTAAATTTTTAATTCTTCC [CACACA_negctrl_site473]” was tested, and the “gcPBM binding intensity (ln)” value was 7.28 ± 0.53.
